{"source": "PubChem BioAssay AID1508623", "about": "(National Center for Advancing Translational Sciences (NCATS), 2021)", "note": "Screen size: about 48,000 compounds; about 450 (0.94%) were called active. Not shown: some 19% with an inconclusive outcome. Calls come from the whole dose curve; as a rule, active = well fitted inhibition curve with a large enough effect; inconclusive = small, poorly fitted or top-dose-only effect; inactive = no such curve, though single readings can be large or run the other way. The list shows a part of the results. Potency is the fitted concentration of half-maximal effect.", "data": [{"test": "Primary qHTS for Identification of Small Molecule Inhibitors of Huntingtin Promoter Activity; note: nearly all actives have a fitted effect of over 50% in size", "conditions": "HEK293 HTT promoter firefly luciferase reporter (activity 0% = vehicle and -100% = no light), 24 h; series mostly up to 57.5 µM; activity change, negative = inhibition: at the top concentration", "outline": "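Firefly luciferase signal from promoter-reporter HEK293 cells was scaled between vehicle (0%) and zero RLU (-100%). Compounds were tested at final concentrations of up to 57.5 uM over 24 h at 37 degrees C. PTC124 at 50 uM final served as control inhibitor.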", "values": [{"smiles": "O=C(Cn1ncc2c3ccccc3n(Cc3ccccc3F)c2c1=O)NCc1ccccc1Cl", "activity change, negative = inhibition": "inactive: -11.3%"}, {"smiles": "N#Cc1ccc(-c2cccs2)nc1SCc1ccc(Br)cc1", "activity change, negative = inhibition": "inactive: 12.7%"}, {"smiles": "COc1ccc(-n2nc(C(=O)N3CCCCC3C)c3c4ccccc4n(C)c3c2=O)cc1Cl", "note": "(configuration not stated)", "activity change, negative = inhibition": "inactive: 10.2%"}, {"smiles": "COc1ccc(CNC(=O)CN(C)S(=O)(=O)c2ccc3nc(C)sc3c2)cc1", "activity change, negative = inhibition": "inactive: -16.6%"}, {"smiles": "COc1cccc(C(=O)Nc2ccccc2C(=O)OCc2cc(=O)n3c4c(sc3n2)CCCC4)c1", "activity change, negative = inhibition": "inactive: -25.6%"}, {"smiles": "Cc1coc2c(C)c3oc(=O)c(CCC(=O)NCCc4ccccc4F)c(C)c3cc12", "activity change, negative = inhibition": "inactive: -11.5%"}, {"smiles": "CCOC(=O)c1ccc(NC(=O)Cn2c(=O)cc(C)c3c(C)nn(-c4ccc(CC)cc4)c32)cc1", "activity change, negative = inhibition": "inactive: -28.9%"}, {"smiles": "COc1cccc(/C=C/c2nc(C#N)c(N3CCC(C(N)=O)CC3)o2)c1", "activity change, negative = inhibition": "inactive: -1.06%"}, {"smiles": "CCOc1ccc(CCNC(=O)c2cn(-c3ccc(OC)cc3)c(=O)c3ccccc23)cc1OCC", "activity change, negative = inhibition": "inactive: -15.9%"}, {"smiles": "COc1ccc(NC(=O)Cn2c(=O)n(CCC(=O)NCC3CCCO3)c(=O)c3cc(OC)c(OC)cc32)cc1", "note": "(configuration not stated)", "activity change, negative = inhibition": "inactive: -16.1%"}, {"smiles": "COc1ccccc1Nc1sc(C(=O)c2ccc(F)cc2)c(N)c1S(=O)(=O)c1ccc(C)cc1", "activity change, negative = inhibition": "inactive: -29.1%"}, {"smiles": "COc1ccc(-c2noc(-c3ccc(N4CCCC4)c([N+](=O)[O-])c3)n2)cc1OC", "activity change, negative = inhibition": "inactive: -8.01%"}, {"smiles": "CCC(=O)O[C@]1(C(=O)CCl)[C@@H](C)C[C@H]2[C@@H]3CCC4=CC(=O)C=C[C@]4(C)[C@@]3(F)[C@@H](O)C[C@@]21C", "activity change, negative = inhibition": "inactive"}, {"smiles": "CCc1ccc(-n2nc(C)c3c(C(=O)N4CCN(c5ccccc5)CC4)cc(C)nc32)cc1", "activity change, negative = inhibition": "inactive: -24.5%"}, {"smiles": "CCOc1ccc(CNC(=O)C2CCCN(c3nnc(C)c4c(C)n(-c5ccccc5)nc34)C2)cc1", "note": "(configuration not stated)", "activity change, negative = inhibition": "inactive: -13.9%"}, {"smiles": "O=C1C[C@@H](c2ccc(O)cc2)Oc2cc(O)cc(O)c21", "activity change, negative = inhibition": "inactive: 32.4%"}, {"smiles": "CCOc1cc(C2NC(=O)c3c(sc4c3CCN(C)C4)N2)ccc1OC(=O)c1ccc(Br)cc1", "note": "(configuration not stated)", "activity change, negative = inhibition": "inactive: -4.41%"}, {"smiles": "Cc1nn2c(C)c(C(=O)NC(C)c3ccccc3)cnc2c1-c1ccc(F)cc1", "note": "(configuration not stated)", "activity change, negative = inhibition": "inactive: -14.8%"}, {"smiles": "CCOc1ccc(NC(=O)Cn2cnc3sc(C)c(S(=O)(=O)N4CCN(c5ccccc5OC)CC4)c3c2=O)cc1", "activity change, negative = inhibition": "inactive: -20.5%"}, {"smiles": "COc1ccc(C)cc1NC(=O)c1cc2c(=O)n3cccc(C)c3nc2s1", "activity change, negative = inhibition": "inactive: 1.61%"}, {"smiles": "CCC(=O)N1CCCc2cc(S(=O)(=O)N3CCC(C(=O)NCc4ccc(F)cc4)CC3)ccc21", "activity change, negative = inhibition": "inactive: -32.3%"}, {"smiles": "Cc1cccc(C)c1-n1ncc(C(=O)O)c1C1CCN(C(=O)OC(C)(C)C)CC1", "activity change, negative = inhibition": "inactive: 16.8%"}, {"smiles": "COc1ccc(Cl)cc1NC(=O)c1cn(C2CCCC2)c(=O)c2c1c1ccccc1n2C", "activity change, negative = inhibition": "inactive: -3.98%"}, {"smiles": "Cc1cccc(N(CC(=O)Nc2ccccc2C(F)(F)F)S(=O)(=O)c2ccccc2)c1C", "activity change, negative = inhibition": "inactive: -28.6%"}, {"smiles": "COc1ccc(OC)c(C2CC(=O)Oc3c2c(=O)n(C)c2ccccc32)c1", "note": "(configuration not stated)", "activity change, negative = inhibition": "inactive: -27.6%"}, {"smiles": "O=C(Nc1ccc(F)cc1)c1ccc2c(=O)n3c(nc2c1)CCCCC3", "activity change, negative = inhibition": "inactive: 11.3%"}, {"smiles": "COCCCNC(=O)CSc1nc2c(sc3ccccc32)c(=O)n1CCc1ccc(OC)c(OC)c1", "activity change, negative = inhibition": "inactive: -8.32%"}, {"smiles": "COc1ccccc1C(=O)NC1(C(F)(F)F)C(=O)Nc2c1c(=O)[nH]c(=O)n2-c1ccc(F)cc1", "note": "(configuration not stated)", "activity change, negative = inhibition": "inactive: 1.63%"}, {"smiles": "CN(C)CCNC(=O)Cn1ccc2cc(S(=O)(=O)N3CCCCCC3)ccc21", "activity change, negative = inhibition": "inactive: 2.74%"}, {"smiles": "Cc1cccc(Cn2c(-c3cccc(Br)c3)nc3ccccc32)c1", "activity change, negative = inhibition": "inactive: -25.6%"}, {"smiles": "COc1ccc(CNC(=O)CSc2ncc3c(n2)-c2ccc(Cl)cc2N(Cc2ccccc2)S3(=O)=O)cc1", "activity change, negative = inhibition": "inactive: -10.9%"}, {"smiles": "COc1ccc(C(=O)NCc2ccc3c(c2)CCN3C(C)=O)c(OC)c1", "activity change, negative = inhibition": "inactive: -23%"}, {"smiles": "Cc1ccccc1NC(=O)C1CCN(S(=O)(=O)c2c(C)noc2/C=C/c2ccco2)CC1", "activity change, negative = inhibition": "inactive: -19.6%"}, {"smiles": "CCC(=O)N1CCc2cc(CNC(=O)c3cccc(N(C)C)c3)ccc21", "activity change, negative = inhibition": "inactive: -13.9%"}, {"smiles": "CCc1ccccc1N1C(=O)CN(S(=O)(=O)CC)CC1(C)C(=O)NC1CCCCC1", "note": "(configuration not stated)", "activity change, negative = inhibition": "inactive: -13.5%"}, {"smiles": "NC(=O)c1c(OCc2c(F)cc(Br)cc2F)nsc1NC(=O)NCCCCN1CCCC1", "activity change, negative = inhibition": "inactive: -19.9%"}, {"smiles": "CCC(=O)OC1=C(C(C)=O)N(Cc2ccccc2)S(=O)(=O)c2ccccc21", "activity change, negative = inhibition": "inactive: -4.05%"}, {"smiles": "Cc1ccc(Cn2c(SCc3ccc(C(=O)N4CCCCC4)cc3)nc3ccncc32)cc1", "Potency": "active: 12.6 µM"}, {"smiles": "CCc1ccccc1NC(=O)Cn1nc(CC)n2c(cc3sccc32)c1=O", "activity change, negative = inhibition": "inactive: -0.775%"}, {"smiles": "NC(=O)c1ccc([N+](=O)[O-])cc1Cl", "activity change, negative = inhibition": "inactive: -0.163%"}, {"smiles": "COc1ccc(-c2cc(C(=O)N3CCCCC3C)no2)cc1OC", "note": "(configuration not stated)", "activity change, negative = inhibition": "inactive: 36.5%"}, {"smiles": "O=C(COc1ccccc1)Nc1nnc(S(=O)(=O)Nc2ccccc2)s1", "activity change, negative = inhibition": "inactive: 2.11%"}, {"smiles": "Cc1ccc(Cl)cc1N1CCN(S(=O)(=O)c2cn(C)c(C)n2)CC1", "activity change, negative = inhibition": "inactive: -11.4%"}, {"smiles": "CC1CCCCN1CCCNC(=O)CN1C(=O)c2cccnc2Oc2ccc(Cl)cc21", "note": "(configuration not stated)", "activity change, negative = inhibition": "inactive: -0.215%"}, {"smiles": "CCOc1ccccc1C1C(C(=O)Nc2ccccc2)=C(C)Nc2nc(SCC(=O)c3ccc(C)cc3)nn21", "note": "(configuration not stated)", "activity change, negative = inhibition": "inactive: -5.74%"}, {"smiles": "CN(C(=O)CSc1nc(-c2ccccc2)no1)c1ccc(F)cc1", "activity change, negative = inhibition": "inactive: 12.7%"}, {"smiles": "O=C1OCCN1/N=C/c1ccc([N+](=O)[O-])o1", "activity change, negative = inhibition": "inactive: 0.777%"}]}]}
